Assay results: the supplement of paper PMC6206098
± gives the uncertainty stated by the source. The sequences are guide strands of siRNAs; only the seed at positions 2 to 7 varies.

Experiments:
HeyA8 = assay: cell viability relative to lipid-only control; higher = less toxic; conditions: concentration: 10 nM; 96 h; Homo sapiens
Experimental: (§1)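 Arrayed screen of 4096 siRNA duplexes, each carrying one of all possible 6mer seeds at guide-strand positions 2-7 in a fixed neutral 19mer scaffold (constant flanks: U at position 1, then ACAUGUAAACCA, plus a 3' AA overhang). The passenger strand is 2'-O-methylated at positions 1-2 so only the guide strand loads into RISC. Duplexes were reverse-transfected at 10 nM with RNAiMAX in triplicate in 384-well plates; viability was read by CellTiter-Glo ATP content 96 h after transfection. Values are % viability normalised to lipid-only wells (HeyA8, H460, M565) or to siNT1 (3LL).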

M565 = assay: as above; conditions: concentration: 10 nM; 96 h; Mus musculus
Experimental: as §1

H460 = assay: as above; conditions: concentration: 10 nM; 96 h; Homo sapiens
Experimental: as §1

3LL = assay: cell viability relative to siNT1 control; HeyA8 human ovarian and H460 human lung cancer; M565 mouse liver and 3LL mouse lung cancer; siNT1 is a non-toxic control siRNA; higher = less toxic; conditions: concentration: 10 nM; 96 h; Mus musculus
Experimental: as §1
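Wherever cell viability relative to lipid-only control is given: reverse lipid transfection in 384-well plates, in triplicate, of duplexes on a non-toxic 19mer backbone with passenger strand 2′-O-methylated at positions 1 and 2, luminescence viability read-out.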
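Wherever cell viability relative to siNT1 control is given: Luminescence-based viability of cells reverse transfected in 384-well plates with lipid-complexed siRNAs built on a non-toxic 19mer backbone whose passenger strand carries 2′-O-methyl groups at positions 1 and 2, triplicates.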

| Sequence | cell viability (HeyA8) | cell viability (M565) | cell viability (H460) | cell viability (3LL) |
| --- | --- | --- | --- | --- |
| UUAGGUCACAUGUAAACCAAA | 13.43 ± 0.13% | 36.9 ± 4.3% | 24.6 ± 3.4% | 64.1 ± 8.6% |
| UCCCGUGACAUGUAAACCAAA | 86.8 ± 8.3% | 71.1 ± 17% | 90.1 ± 7.1% | 93.5 ± 27% |
| UGGUGAUACAUGUAAACCAAA | 34.6 ± 4.7% | 36.2 ± 9.5% | 41.5 ± 5.6% | 26.4 ± 5% |
| UCCUUAAACAUGUAAACCAAA | 85.1 ± 3.4% | 94.5 ± 9.1% | 71.6 ± 20% | 98.2 ± 17% |
| UGACUAUACAUGUAAACCAAA | 67.8 ± 4% | 70.6 ± 9.3% | 56.7 ± 4.7% | 82.7 ± 13% |
| UAGCAUAACAUGUAAACCAAA | 89.1 ± 3.7% | 59.7 ± 17% | 60.4 ± 3.9% | 91.1 ± 12% |
| UGUACCGACAUGUAAACCAAA | 79.7 ± 3.1% | 37.6 ± 13% | 61.4 ± 3.1% | 73.7 ± 13% |
| UCUUUAAACAUGUAAACCAAA | 83.9 ± 7.7% | 52.1 ± 12% | 83 ± 3% | 90.4 ± 17% |
| UGUUUCAACAUGUAAACCAAA | 26.5 ± 5.9% | 80.8 ± 5.7% | 50.9 ± 2.8% | 84.4 ± 5% |
| UACAAAUACAUGUAAACCAAA | 53.8 ± 3.2% | 64 ± 12% | 79 ± 13% | 86.7 ± 10% |
| UGGGAAAACAUGUAAACCAAA | 60.6 ± 5.1% | 64.1 ± 2.6% | 72 ± 16% | 99.3 ± 7.5% |
| UGGUUGGACAUGUAAACCAAA | 7.58 ± 0.6% | 18.1 ± 2.3% | 17.3 ± 3.5% | 18.4 ± 2.9% |
| UAAAAUUACAUGUAAACCAAA | 98.7 ± 13% | 90 ± 4.9% | 65.6 ± 3.6% | 115 ± 19% |
| UAGCGCCACAUGUAAACCAAA | 53.7 ± 4.4% | 54.1 ± 6.3% | 56.9 ± 8.7% | 81.3 ± 3% |
| UGUCUGUACAUGUAAACCAAA | 9.01 ± 2.4% | 24.2 ± 1.9% | 37.7 ± 5% | 30.1 ± 6.3% |
| UGUCAUUACAUGUAAACCAAA | 43.4 ± 1.7% | 21.8 ± 2.8% | 30.2 ± 6% | 85.3 ± 12% |
| UUAGAACACAUGUAAACCAAA | 90 ± 4.5% | 122 ± 5.7% | 107 ± 10% | 93 ± 16% |
| UGCGUGGACAUGUAAACCAAA | 50 ± 1.4% | 29.1 ± 2.9% | 49.2 ± 4.6% | 64.9 ± 6.5% |
| UUUGUUAACAUGUAAACCAAA | 92 ± 9.7% | 95.5 ± 12% | 100 ± 4.7% | 103 ± 2.2% |
| UGGGGGAACAUGUAAACCAAA | 2.69 ± 0.41% | 12.3 ± 4.9% | 19.3 ± 3.8% | 41.9 ± 4.8% |
| UGAUGGCACAUGUAAACCAAA | 4.2 ± 0.36% | 21.7 ± 4.9% | 18.9 ± 1.4% | 33.1 ± 4.6% |
| UUCGGGAACAUGUAAACCAAA | 87.1 ± 10% | 75.9 ± 3.2% | 73.1 ± 8.3% | 98 ± 20% |

| Sequence | cell viability (HeyA8) | cell viability (M565) | cell viability (H460) | cell viability (3LL) |
| --- | --- | --- | --- | --- |
| UAUGGUCACAUGUAAACCAAA | 67.8 ± 5.8% | 83.6 ± 23% | 55.1 ± 9.6% | 97.1 ± 3.4% |
| UGUCUAUACAUGUAAACCAAA | 39.4 ± 1.8% | 37 ± 7.2% | 50.1 ± 7.3% | 45.3 ± 9.3% |
| UAUCCUCACAUGUAAACCAAA | 48.8 ± 7% | 49.4 ± 9.6% | 35.1 ± 1.8% | 36.4 ± 3.8% |
| UGCCUGCACAUGUAAACCAAA | 9.65 ± 1.6% | 27.2 ± 1.1% | 17 ± 1.1% | 15.6 ± 5.7% |
| UUAUCAGACAUGUAAACCAAA | 73 ± 7.7% | 66.4 ± 14% | 70 ± 1.5% | 82.9 ± 9.6% |
| UCCGGGCACAUGUAAACCAAA | 8.45 ± 1.2% | 6.22 ± 1% | 36.4 ± 4.9% | 9.35 ± 1.8% |
| UAAUCCAACAUGUAAACCAAA | 92.5 ± 7.1% | 77.6 ± 3.7% | 74.2 ± 6.6% | 102 ± 8.5% |
| UCUCUGAACAUGUAAACCAAA | 82.2 ± 7.8% | 61 ± 12% | 36.8 ± 2.1% | 104 ± 13% |
| UCGGAGCACAUGUAAACCAAA | 15.9 ± 2.3% | 9.4 ± 3.1% | 18.9 ± 1.1% | 14.5 ± 5.1% |
| UAGUCGCACAUGUAAACCAAA | 32.5 ± 3.9% | 57.6 ± 2.1% | 64.7 ± 12% | 31.8 ± 4.5% |
| UGCGCAGACAUGUAAACCAAA | 51.6 ± 3.4% | 76.2 ± 1.9% | 90.7 ± 16% | 72.9 ± 7.3% |
| UACCCAAACAUGUAAACCAAA | 65 ± 4.9% | 29.2 ± 4.9% | 80.9 ± 11% | 68.6 ± 3.3% |
| UGUCAUAACAUGUAAACCAAA | 82.6 ± 6.4% | 69.5 ± 16% | 29.2 ± 4.8% | 91.7 ± 9.4% |
| UUAUAUCACAUGUAAACCAAA | 64.6 ± 3.9% | 73.2 ± 7.8% | 74.9 ± 17% | 18.1 ± 5.5% |
| UCUGUAAACAUGUAAACCAAA | 91.2 ± 4.7% | 67 ± 6.9% | 62.39 ± 0.59% | 103 ± 14% |
| UCGGCAGACAUGUAAACCAAA | 48.8 ± 2.3% | 27.3 ± 7.8% | 58.7 ± 3.4% | 78.1 ± 14% |
| UUGUGUAACAUGUAAACCAAA | 70.4 ± 3.6% | 67.9 ± 3.2% | 75 ± 15% | 87.7 ± 5.2% |
| UAAUGACACAUGUAAACCAAA | 57.1 ± 2.6% | 24.2 ± 5.6% | 64.3 ± 3.7% | 57 ± 9% |
| UAGUUCUACAUGUAAACCAAA | 26.3 ± 2.2% | 15.9 ± 1% | 48.6 ± 16% | 52.2 ± 1.7% |
| UCGGGACACAUGUAAACCAAA | 64.43 ± 0.62% | 22 ± 4.6% | 47.6 ± 4.4% | 80.6 ± 11% |
| UUUAUUAACAUGUAAACCAAA | 95.5 ± 1.5% | 87.4 ± 18% | 76.1 ± 18% | 92.4 ± 4.9% |
| UUAGUAUACAUGUAAACCAAA | 65.1 ± 4.8% | 113 ± 8.8% | 45.4 ± 6.1% | 106 ± 10% |
